Out of some 71,000 compounds screened, about 1,800 (2.5%) were called active. This list was built around the results that the source calls inconclusive (neither active nor inactive); the mix of calls is not that of the screen. Calls come from the whole dose curve; as a rule, active = well fitted activation curve with a large enough effect in the signal ratio, with a control signal flat (not every such curve was filed as active); inconclusive = small, poorly fitted or top-dose-only effect, or effect the other way, or a change in a side signal; inactive = flat fitted curve, though single readings scatter; the % refers to the signal ratio. Potencies of inconclusive entries are doubtful fits and often do not repeat.
assay: Cell signaling CRE-BLA (Fsk stim); settings: CHO CRE-bla reporter (cAMP response element driving beta-lactamase), forskolin EC10, beta-lactamase ratio; activity change, negative = inhibition: at 38.2 µM (top of the series) unless noted; for activity change, negative = inhibition: % of control where 0% means no effect
Outline: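 CHO CRE-bla cells, overnight plating in Opti-MEM with 0.5% dialyzed FBS; cpd titration + EC10 NKH 477, 3 h 37 °C; CCF4 2 h RT; ex 405/em 460 vs 530 ratio → %Activity, AC50.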
Potency is the fitted concentration of half-maximal effect; tags give direction and shape of the fitted curve.

SMILES | activity change, negative = inhibition | Potency
Cc1onc(-c2ccccc2)c1C(=O)NC(CC(=O)O)c1ccc(OC(C)C)cc1 (configuration not stated) | inconclusive: -47.1% | –
COc1cccc(N2CCN(Cc3nc(N)nc(Nc4ccccc4)n3)CC2)c1 | inactive: -8.29% | –
COc1ccc2cc3cc(C(=O)Nc4ccc5c(c4)OCCO5)oc3nc2c1 | – | inconclusive: 25.1 µM [falling, single point]
Cc1ccc(S(=O)(=O)N(Cc2nccn2C)C(C)C)cc1 | inconclusive: -13.9% | –
CCOC(=O)C1CCN(C(=O)c2cn(C)c(=O)c3cc(OC)c(OC)cc23)CC1 | – | inconclusive: 10 µM [rising, partial curve]
CCOc1ccccc1NC(=O)Cn1nnc(C(=O)Nc2ccccc2Cl)c1N | inconclusive: 17.8% | –
CCOC(=O)N1CCN(C(=O)c2cn(CCOC)c(=O)c3c2c2ccccc2n3C)CC1 | inactive: 7.95% | –
CCCCn1c(CN2CCN(C(=O)OCC)CC2)nc2c1c(=O)[nH]c(=O)n2C | inconclusive: 8.71% | –
Cc1ccc(-n2nnnc2SCC(=O)Nc2ccccc2N2CCCCC2)cc1C | – | inconclusive: 5.01 µM [rising, partial curve]
CCC(C)(C)n1nnnc1C(c1cc2cc(OC)c(OC)cc2[nH]c1=O)N1CCc2ccccc21 (configuration not stated) | – | inconclusive: 12.6 µM [rising, single point]
CCN(CC)CCCC(C)n1c(-c2ccccc2)nc2c(NCCO)nc(C)nc21 (configuration not stated) | inconclusive: 29.1% | –
CCSc1nnc(NC(=O)CSc2nc(CC)nc3c2c(=O)n(C)c(=O)n3C)s1 | – | inconclusive: 5.01 µM [rising, partial curve]
COc1cc(Cn2c(=O)oc3ccc(C)cc32)ccc1OC(C)C | inconclusive: 29.3% | –
N#CCCn1c(=O)c(-c2ccc(F)cc2)nc2cnc(N3CCNCC3)nc21 | – | inconclusive: 2.51 µM [rising, partial curve]
COCCNC(=O)C(c1ccc(C)o1)N(Cc1ccc(OC)cc1)C(=O)Cn1nnc2ccccc21 (configuration not stated) | inactive: -6.16% | –
Cc1ccc(-n2c(=O)c(C#N)cc3c(=O)n4ccccc4nc32)cc1 | – | active: 2.51 µM
Cc1nc2cnc(N(C)C)nc2n(C2CC2)c1=O | – | active: 10 µM
Cc1ccc(-n2c(C)cc(C(=O)CSc3nnnn3C)c2C)cc1 | – | inconclusive: 12.6 µM [rising, single point]
Cc1ccc(C)c(Cn2c(=O)n(CCC(=O)NCc3ccco3)c(=O)c3sccc32)c1 | inconclusive: -3.45% | –
Clc1cccc(-c2nnc3sc(-c4ccc5c(c4)OCO5)nn23)c1 | inactive: 14.6% | –
CCc1ccccc1N1CC(C(=O)O)CC1=O (configuration not stated) | – | active: 2 µM
CCOc1ccccc1N1CSC2=C(C#N)C(c3c(OC)ccc4ccccc34)CC(=O)N2C1 (configuration not stated) | inconclusive: -15.8% | –

Source: PubChem BioAssay AID662 (National Center for Advancing Translational Sciences (NCATS), 2007)
